# According to ChEMBL document CHEMBL4888484, “Replenishing the malaria drug discovery pipeline: Screening and hit evaluation of the MMV Hit Generation Library 1 (HGL1) against asexual blood stage Plasmodium falciparum ,using a nano luciferase reporter read-out” (2022):
# The campaign covered roughly 150,000 compounds. About 540 (0.36%) showed an effect of 50% or more. The list shows a part of the results.
# Test system: Plasmodium falciparum
# Assay: Primary screen in NF54 nanoGlo assay, in single point, at 2uM, 72h; a lower Z score goes with more inhibition
# Assay type: functional, Erythrocyte
# Settings: timepoint 72 hour
Compound,% Inhibition [%],Z score
CC(C)(CO)C(=O)N[C@H]1C[C@@H]1c1ccccc1OC(F)F,-16,1.87
CC(C)(C)OC(=O)N1CC(O)(C2(C(=O)N3CC[C@H](F)C3)CCC2)C1,7,-0.91
Cc1ccc(=O)n(CC(=O)N(c2cccc(F)c2)C2CCCC2)n1,3,-0.33
CCN1CCC[C@@H]1CNC(=O)c1cc(-c2ccc(OC)cc2)nc2ccc(C(C)C)cc12,6,-0.72
CC(C)c1n[nH]c2c1CN(Cc1cccc(C(=O)O)c1)CC2,-10,2.08
COc1cc(-c2nc3[nH]cnn3c2Nc2c(C)cccc2C)ccc1O,-15,1.65
CN1c2ccccc2N(CCNC(=O)c2cncc(Br)c2)S1(=O)=O,-11,1.62
Cc1nn(CCCNC(=O)CCc2ccncc2)c(C)c1Cl,-8,1.24
Cn1cncc1CC(=O)N(C1CC1)C1CN(C(=O)OC(C)(C)C)C1,12,-1.67
Cc1cnc(CN2C[C@]3(CCCN(C(=O)c4cn(C)nc4C)C3)CCC2=O)cn1,-9,1.06
Cc1nc(CCNC(=O)c2ccoc2C)cs1,-13,2.25
C[C@H](Nc1ncccn1)c1cccc(-n2cccn2)c1,2,-0.32
Cc1cccc(NC(=O)N2CCC3(CC2)Oc2ccccc2C(=O)N3Cc2ccccc2F)c1,2,-0.4
CCCOc1ccc([C@H](C)N)cc1OC,-8,1.12
Cc1ccc2c(c1C)NC(=O)C21NC(C(C)O)[C@H]2C(=O)N(Cc3ccc4c(c3)OCO4)C(=O)[C@H]21 (stereo not given in full),-12,1.55
CCN(c1nc(C)nc2c1cnn2C)[C@H]1CCNC1=O,-2,0.32
CCOc1cccc(Cc2noc([C@@H]3CCCN3Cc3ccc(F)cc3)n2)n1,-7,1.05
O=C(NS(=O)(=O)Cc1c(F)cccc1F)c1csc([C@@H]2CCCO2)n1,-7,1.08
O=C(NCc1ccc(Cl)cc1)N1C[C@H]2CC[C@@H](C1)[C@H]2O,-8,0.9
OC1CCCC1C1CCCN1c1cncc(Br)c1 (stereo not given),-6,0.64
Cc1cc(O)c(C(=O)NCc2ccsc2)cn1,-9,1.36
CC1CC(c2ccccc2)CN1CCCn1ccnc1 (stereo not given),-3,0.31

Compound,% Inhibition [%],Z score
CCOc1ccc(-c2nc(CN(c3ccccc3OCC)S(=O)(=O)c3cccs3)c(C)o2)cc1,-8,1.2
COc1ccc(S(=O)(=O)Nc2cnc3c(cnn3C(C)C)c2)cc1OC,-8,1.05
CNC(=O)[C@@H]1C[C@H](N)CN1C(=O)C1(Nc2ccc(C)c(C)c2)CCCCC1,-7,1.34
O=C(CNC(=O)[C@H]1CC[C@H](CNS(=O)(=O)c2ccc(F)cc2)CC1)NCCO,-10,1.03
CN(CCC(=O)Nc1ccc2c(c1)OCCO2)Cc1ccc(F)cc1,-10,1.13
CC(C)CN[C@H]1[C@H](O)[C@@H](N2CCC(Cc3ccccc3)CC2)[C@@H]2OC[C@H]1O2,-9,1.21
CN(CCc1noc(C2CC2)n1)c1ncncc1C(=O)O,-2,0.32
Cc1ccc(NC(=O)N2CCC(O)(c3c(F)cccc3F)CC2)nc1,-21,2.81
COC(=O)c1cccc(S(=O)(=O)Nc2nnc3ccccn23)c1C,3,-0.46
Cc1nc(C)c(-c2cc(C(=O)NCc3cccnc3)[nH]n2)s1,-6,0.77
COc1nn(C)cc1CNC(=O)[C@@H]1CCc2cccnc21,-4,0.46
CC(C)Cn1cc(C(=O)N(Cc2ccco2)c2ccccn2)cn1,13,-1.63
Cc1ccsc1-c1cc(NS(=O)(=O)C[C@H]2CCCCO2)[nH]n1,0,-0.03
COc1ccncc1NC(=O)CCOc1ccccc1,-1,0.16
CS(=O)(=O)NC[C@@](O)(c1ccccc1)C1CC1,4,-0.49
CCc1ncc(NC(=O)NC(C)(C)c2noc(C)n2)cn1,-7,0.77
COc1ccc(-c2nc3c(cnn3C3CCN(C)CC3)[nH]2)cn1,-7,0.9
CC1CC(C)(C)C(CNC(=O)c2ccccn2)C1NC(=O)c1ccccn1 (stereo not given),-18,2.36
Cc1nc(CC(=O)NC[C@@H]2C[C@@H]3C=C[C@@H]2C32CC2)cs1,-6,0.94
Fc1ccc(-c2cnc3n2C[C@H](CNCc2cccs2)OC3)cc1,-6,0.9
Cn1nc(CN2CCCC2)c2c1CCN(S(=O)(=O)c1ccc(F)cc1F)C2,-3,0.54
CC1(C)CN(C[C@@H]2CNC(=O)C2)Cc2ccccc21,-11,1.69

Compound,% Inhibition [%],Z score
Cc1cc(C(=O)N[C@H]2CC[C@@H](CO)CC2)ccc1Cl,3,-0.47
COCC1(C2CCC2)CN(C(=O)N[C@H]2CCCc3c(F)cccc32)C1,1,-0.24
CC#CCNC(=O)N[C@@H](CC)c1noc(C)n1,1,-0.09
CCCO[C@H]1CCCN(c2ncnc3[nH]ccc23)C1,0,-0.05
Cc1ccccc1C1(O)CCN(CCC2CCS(=O)(=O)C2)C1 (stereo not given),-4,0.76
CCC1=NO[C@@H](CN(C)Cc2snnc2C)C1,1,-0.05
O=C(c1cc(-c2ccccc2)nc2ccccc12)N1CCC(O)(C(=O)O)CC1,-10,1.99
COc1ccc([C@H](C)NC(=O)N2CCC(Nc3ccccc3C)CC2)c(OC)c1,-5,0.82
O=C(c1ccco1)N1CCN(c2nc(CN3CCN(c4ccccc4Cl)CC3)cc(=O)[nH]2)CC1,2,-0.21
CCCCN(C)C(=O)c1c(C)c(S(=O)(=O)N2CCC(C)CC2)c(C)n1C,-15,1.94
CCOc1cccc(CN2CCCn3nc(CNC(=O)C4CCC4)cc3C2)c1,-16,1.52
CCc1nn(C)c(Cl)c1CN(C)Cc1nc(C)cs1,-8,1.57
COCc1nc(CNC(=O)Cc2ccc3c(c2)CCCO3)cs1,-6,0.8
Cc1cc2c(cc1C)N(c1nc3c(cnn3C)c(=O)[nH]1)CC2,7,-0.86
Cc1cc([C@@H](O)CNC(=O)CC(C)(C)C)c(C)o1,1,-0.1
O=S1(=O)CCc2nnc(-c3cc4c(s3)CCCCC4)n2CC1,6,-1.17
CN(C[C@H]1CCCCO1)C(=O)Cn1nnnc1CN1CCCCCC1,-8,1.19
FC(F)[C@H]1CCCN1Cc1ccn[nH]1,-1,0.08
Cn1cc([C@]2(CNC(=O)c3cc4n(n3)CCCO4)CCCO2)cn1,-8,1.29
CON1C(=O)C(C)(C)N(OC)C(=O)C1(C)C,-1,0.19
COC(=O)N[C@@H](CC(C)C)C(=O)Nc1cccc(-c2ncc(C)[nH]2)c1,-3,0.56
CCCc1onc(C)c1C(=O)NS(=O)(=O)c1ccc(C)s1,-6,0.88

Compound,% Inhibition [%],Z score
C#C[C@H](C)OC(=O)c1cccc(C(=O)NC)c1,-5,0.66
Cc1c[nH]c(CN(C)C(=O)C2(N3C[C@@H](C)O[C@@H](C)C3)Cc3ccccc3C2)n1,2,-0.31
CCC1NC2(C(=O)N(CC(=O)Nc3ccc(C)cc3)c3ccccc32)C2C(=O)N(Cc3ccccc3)C(=O)C12 (stereo not given),0,-0.02
CCC[C@@H](CNC(=O)c1cc(F)cc(Cl)c1)N(C)C,-2,0.23
O=C(NC[C@H]1CCOC2(CCC2)C1)c1ccncc1Br,3,-0.45
CC1CN(C(=O)Cn2cc(NC(=O)C3(C)COC3)cn2)CC(C)O1 (stereo not given),12,-1.55
O=C([C@H]1CCCN(c2c(-c3ccccc3)c3cc(Cl)ccc3[nH]c2=O)C1)N1CCN(CCO)CC1,-9,0.98
CC(C)CCC(C)NC(=O)NCC1CCCS1(=O)=O (stereo not given),-4,0.49
CC1CC(c2ccsc2)CN1C(=O)NCCN1CCOCC1 (stereo not given),-12,2
Cc1ccc(C)c(-n2ncnc2[C@H](C)N2CCN(C)CC2)c1,4,-0.63
Fc1ccc(-c2nc(N3CCOCC3)ncc2-c2nnnn2-c2ccccc2)c(F)c1,7,-0.79
CC(C)(CCC#N)CNC[C@H]1CCCn2cc(C(C)(C)C)nc21,-13,2.01
CS(=O)(=O)C[C@H](NCC1=Cc2ccccc2OC1)c1ccccc1,-3,0.3
CNc1nc(C)cc(C(=O)N(CC(C)C)C2CCN(C)CC2)n1,3,-0.33
Cc1oc(S(C)(=O)=O)cc1C(=O)N[C@@H](C)c1n[nH]c(C(C)C)n1,-6,0.96
O=C(NCC1CCN(Cc2cc[nH]n2)CC1)c1ccccn1,-1,0.19
OCC1CCCCC1Nc1nccc(C(F)(F)F)n1 (stereo not given),-15,2.79
CCS(=O)(=O)c1ccccc1NCCc1cn2c(n1)CCCC2,-10,1.12
COc1cccc(-c2cc(O)n(-c3ccccc3OC)n2)c1,-5,0.71
